In the supplement of paper PMC10369915 one finds enrichment score data, which are given here for 18 molecules.

Some of the results follow. No stated cut-off is given here; in the data, active = 3.2 or more and inactive = the rest. The signal is at background level for most entries.
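Further: displayed peptides selected on beads carrying the immobilized SH2 domain, with library peptides lacking any tyrosine serving as negative controls.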

One assay deals with SHP2 C-SH2 domain E139D. Briefly: enrichment score (SH2-bound / input frequency) (ratio); bacterial display of known human phosphotyrosine sites (pTyr-Var adds point mutants) read by sequencing; higher = stronger binding; tyrosines were phosphorylated by kinases first. The note with it: peptide library: pTyr-Var.
Consider NVVNEYSSELE [FGB_Y172], for which the enrichment score is inactive: 1.03.

Take MPLDQYSPSFP [FGFR1_Y776]: the enrichment score is inactive: 0.687.

IEENGYNTFAS [FGF10_Y161_YF]: the enrichment score was inactive: 0.64.

Consider SSVKLYRVYCD [FGB_Y266_P265L], for which the enrichment score was inactive: 0.919.

Turning to TSNQEYLDLSM [FGFR1_Y766], the enrichment score is inactive: 0.821.

For MNPPPYSQLLS [FGF23_Y154_F157L], the enrichment score is inactive: 0.723.

For the molecule MFFSTYDRDND [FGB_Y408], the enrichment score was inactive: 1.29.

With SSVKLYRVFCD [FGB_Y266_P265L_YF], the enrichment score was inactive: 0.749.

Regarding HHIDFYKKTTN [FGFR1_Y654_YF], the enrichment score was inactive: 0.94.

On to FMCKVYSDPQP [FGFR1_Y280], for which the enrichment score is inactive: 0.721.

On to YTNELYMMMRD [FGFR1_Y730_C725Y], for which the enrichment score was inactive: 1.03.

On to INNIDYYKKTT [FGFR2_Y656], for which the enrichment score was inactive: 0.517.

For the molecule LGGSPYPGVPV [FGFR1_Y701], the enrichment score is inactive: 0.773.

Turning to PHQTIYGALMI [FGF23_Y70_S71G], the enrichment score was inactive: 0.441.

Turning to CTNELYMMMRD [FGFR1_Y730], the enrichment score is inactive: 0.922.

On to LGGSPYPRVPV [FGFR1_Y701_G703R], for which the enrichment score is inactive: 0.921.

Turning to ARRMEYLASQK [FGFR2_Y616_G613R], the enrichment score was inactive: 0.706.

Turning to IALSKYGRVKW [FGF6_Y186_R191W], the enrichment score is inactive: 2.28.

For another assay, the target named is SHP2 C-SH2 domain wild-type. Described as above. The note with it: peptide library: pTyr-Var.
Consider NVVNEYSSELE [FGB_Y172], for which the enrichment score is inactive: 0.72.

As for MPLDQYSPSFP [FGFR1_Y776], the enrichment score is inactive: 0.845.

As to IEENGYNTFAS [FGF10_Y161_YF], the enrichment score was inactive: 0.725.

As to SSVKLYRVYCD [FGB_Y266_P265L], the enrichment score is inactive: 0.781.

Regarding TSNQEYLDLSM [FGFR1_Y766], the enrichment score is inactive: 0.831.

On to MNPPPYSQLLS [FGF23_Y154_F157L], for which the enrichment score is inactive: 0.765.

MFFSTYDRDND [FGB_Y408]: the enrichment score is inactive: 1.07.

With SSVKLYRVFCD [FGB_Y266_P265L_YF], the enrichment score is inactive: 0.83.

HHIDFYKKTTN [FGFR1_Y654_YF]: the enrichment score is inactive: 0.555.

Regarding FMCKVYSDPQP [FGFR1_Y280], the enrichment score was inactive: 1.14.

Turning to YTNELYMMMRD [FGFR1_Y730_C725Y], the enrichment score was inactive: 0.867.

Consider INNIDYYKKTT [FGFR2_Y656], for which the enrichment score is inactive: 0.63.

For the molecule LGGSPYPGVPV [FGFR1_Y701], the enrichment score is inactive: 0.639.

With PHQTIYGALMI [FGF23_Y70_S71G], the enrichment score is inactive: 0.834.

As for CTNELYMMMRD [FGFR1_Y730], the enrichment score is inactive: 1.51.

Regarding LGGSPYPRVPV [FGFR1_Y701_G703R], the enrichment score is inactive: 0.79.

On to ARRMEYLASQK [FGFR2_Y616_G613R], for which the enrichment score was inactive: 0.396.

As for IALSKYGRVKW [FGF6_Y186_R191W], the enrichment score is inactive: 2.12.

Another assay concerns the target SHP2 N-SH2 domain L43F. The assay is described as above. The note with it: peptide library: pTyr-Var.
Regarding NVVNEYSSELE [FGB_Y172], the enrichment score was inactive: 0.719.

Consider MPLDQYSPSFP [FGFR1_Y776], for which the enrichment score is inactive: 0.749.

On to IEENGYNTFAS [FGF10_Y161_YF], for which the enrichment score is inactive: 0.606.

Turning to SSVKLYRVYCD [FGB_Y266_P265L], the enrichment score was inactive: 0.779.

With TSNQEYLDLSM [FGFR1_Y766], the enrichment score was inactive: 0.863.

For MNPPPYSQLLS [FGF23_Y154_F157L], the enrichment score is inactive: 0.805.

MFFSTYDRDND [FGB_Y408]: the enrichment score was inactive: 1.34.

SSVKLYRVFCD [FGB_Y266_P265L_YF]: the enrichment score is inactive: 0.714.

Regarding HHIDFYKKTTN [FGFR1_Y654_YF], the enrichment score is inactive: 0.523.

With FMCKVYSDPQP [FGFR1_Y280], the enrichment score is inactive: 1.06.

On to YTNELYMMMRD [FGFR1_Y730_C725Y], for which the enrichment score is inactive: 1.14.

Consider INNIDYYKKTT [FGFR2_Y656], for which the enrichment score is inactive: 0.722.

For the molecule LGGSPYPGVPV [FGFR1_Y701], the enrichment score is inactive: 0.767.

For the molecule PHQTIYGALMI [FGF23_Y70_S71G], the enrichment score is inactive: 0.809.

In the case of CTNELYMMMRD [FGFR1_Y730], the enrichment score is inactive: 1.01.

Consider LGGSPYPRVPV [FGFR1_Y701_G703R], for which the enrichment score was inactive: 0.773.

Take ARRMEYLASQK [FGFR2_Y616_G613R]: the enrichment score is inactive: 0.617.

For IALSKYGRVKW [FGF6_Y186_R191W], the enrichment score was inactive: 2.15.

The target of the next assay is SHP2 N-SH2 domain T42A. The assay is described as above. As to conditions: peptide library: pTyr-Var.
Regarding NVVNEYSSELE [FGB_Y172], the enrichment score is inactive: 0.805.

Consider MPLDQYSPSFP [FGFR1_Y776], for which the enrichment score is inactive: 0.588.

Take IEENGYNTFAS [FGF10_Y161_YF]: the enrichment score is inactive: 0.607.

For the molecule SSVKLYRVYCD [FGB_Y266_P265L], the enrichment score is inactive: 0.575.

Take TSNQEYLDLSM [FGFR1_Y766]: the enrichment score was inactive: 0.796.

Take MNPPPYSQLLS [FGF23_Y154_F157L]: the enrichment score was inactive: 0.668.

For the molecule MFFSTYDRDND [FGB_Y408], the enrichment score is inactive: 1.38.

Turning to SSVKLYRVFCD [FGB_Y266_P265L_YF], the enrichment score was inactive: 0.835.

Regarding HHIDFYKKTTN [FGFR1_Y654_YF], the enrichment score was inactive: 0.535.

For the molecule FMCKVYSDPQP [FGFR1_Y280], the enrichment score is inactive: 0.706.

As to YTNELYMMMRD [FGFR1_Y730_C725Y], the enrichment score is inactive: 1.16.

On to INNIDYYKKTT [FGFR2_Y656], for which the enrichment score was inactive: 0.415.

As for LGGSPYPGVPV [FGFR1_Y701], the enrichment score was inactive: 0.567.

As to PHQTIYGALMI [FGF23_Y70_S71G], the enrichment score is inactive: 0.771.

As to CTNELYMMMRD [FGFR1_Y730], the enrichment score was inactive: 0.865.

Regarding LGGSPYPRVPV [FGFR1_Y701_G703R], the enrichment score is inactive: 0.716.

ARRMEYLASQK [FGFR2_Y616_G613R]: the enrichment score is inactive: 0.562.

With IALSKYGRVKW [FGF6_Y186_R191W], the enrichment score is inactive: 2.07.

The target of another assay is SHP2 N-SH2 domain T52S. Described as above. The note with it: peptide library: pTyr-Var.
For NVVNEYSSELE [FGB_Y172], the enrichment score was inactive: 0.899.

In the case of MPLDQYSPSFP [FGFR1_Y776], the enrichment score is inactive: 0.568.

IEENGYNTFAS [FGF10_Y161_YF]: the enrichment score is inactive: 0.556.

As to SSVKLYRVYCD [FGB_Y266_P265L], the enrichment score is inactive: 0.82.

For the molecule TSNQEYLDLSM [FGFR1_Y766], the enrichment score is inactive: 0.796.

On to MNPPPYSQLLS [FGF23_Y154_F157L], for which the enrichment score was inactive: 0.78.

For the molecule MFFSTYDRDND [FGB_Y408], the enrichment score is inactive: 1.28.

SSVKLYRVFCD [FGB_Y266_P265L_YF]: the enrichment score is inactive: 0.673.

For HHIDFYKKTTN [FGFR1_Y654_YF], the enrichment score is inactive: 0.408.

As for FMCKVYSDPQP [FGFR1_Y280], the enrichment score was inactive: 0.507.

With YTNELYMMMRD [FGFR1_Y730_C725Y], the enrichment score was inactive: 0.929.

Consider INNIDYYKKTT [FGFR2_Y656], for which the enrichment score was inactive: 0.597.

Consider LGGSPYPGVPV [FGFR1_Y701], for which the enrichment score is inactive: 0.873.

For PHQTIYGALMI [FGF23_Y70_S71G], the enrichment score was inactive: 0.711.

In the case of CTNELYMMMRD [FGFR1_Y730], the enrichment score is inactive: 0.821.

In the case of LGGSPYPRVPV [FGFR1_Y701_G703R], the enrichment score was inactive: 0.744.

With ARRMEYLASQK [FGFR2_Y616_G613R], the enrichment score is inactive: 0.576.

As to IALSKYGRVKW [FGF6_Y186_R191W], the enrichment score was inactive: 2.2.

For the next assay, the target named is SHP2 N-SH2 domain wild-type. The assay is described as above. As to conditions: peptide library: pTyr-Var.
In the case of NVVNEYSSELE [FGB_Y172], the enrichment score was inactive: 1.29.

Consider MPLDQYSPSFP [FGFR1_Y776], for which the enrichment score was inactive: 0.695.

As to IEENGYNTFAS [FGF10_Y161_YF], the enrichment score is inactive: 0.561.

Consider SSVKLYRVYCD [FGB_Y266_P265L], for which the enrichment score is inactive: 0.787.

TSNQEYLDLSM [FGFR1_Y766]: the enrichment score is inactive: 0.994.

As for MNPPPYSQLLS [FGF23_Y154_F157L], the enrichment score was inactive: 0.781.

Take MFFSTYDRDND [FGB_Y408]: the enrichment score is inactive: 1.09.

For SSVKLYRVFCD [FGB_Y266_P265L_YF], the enrichment score was inactive: 1.04.

As to HHIDFYKKTTN [FGFR1_Y654_YF], the enrichment score is inactive: 0.886.

For FMCKVYSDPQP [FGFR1_Y280], the enrichment score was inactive: 1.18.

Consider YTNELYMMMRD [FGFR1_Y730_C725Y], for which the enrichment score is inactive: 0.985.

Consider INNIDYYKKTT [FGFR2_Y656], for which the enrichment score is inactive: 0.372.

Turning to LGGSPYPGVPV [FGFR1_Y701], the enrichment score is inactive: 0.878.

Regarding PHQTIYGALMI [FGF23_Y70_S71G], the enrichment score was inactive: 0.996.

Regarding CTNELYMMMRD [FGFR1_Y730], the enrichment score is inactive: 1.45.

Turning to LGGSPYPRVPV [FGFR1_Y701_G703R], the enrichment score was inactive: 0.863.

As for ARRMEYLASQK [FGFR2_Y616_G613R], the enrichment score is inactive: 0.494.

As for IALSKYGRVKW [FGF6_Y186_R191W], the enrichment score was inactive: 2.07.
